# Data: the supplement of paper PMC4166925
# ± gives the standard deviation of the averaged measurements. The full ranking holds about 33,000 sequences; the median of “E-score (dimensionless, -0.5 to 0.5)” is about -0.046, and the highest 2% start at about 0.36. The list shows a part of the results.
# Test system: T1, SpTbr T-box DNA-binding domain (GST fusion)
# T1 sequence: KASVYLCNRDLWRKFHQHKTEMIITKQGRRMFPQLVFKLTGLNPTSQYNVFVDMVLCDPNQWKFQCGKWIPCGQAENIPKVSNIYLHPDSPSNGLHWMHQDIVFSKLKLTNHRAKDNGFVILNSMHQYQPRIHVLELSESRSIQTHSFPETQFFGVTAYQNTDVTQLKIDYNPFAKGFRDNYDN
# Assay: PBM E-score of 8-mer (E-score (dimensionless, -0.5 to 0.5)); Tbr is Tbrain of the sea star Patiria miniata (Pm) or the sea urchin Strongylocentrotus purpuratus (Sp); higher = stronger binding preference; most listed sequences are background and not binding sites
# Conditions: the construct has about 5 more residues each side
# Summary of the method: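 Expression of GST-fused Tbr T-box DNA-binding domains, each holding the full T-box plus roughly five flanking residues, was carried out in BL21 E. coli at 20 °C, with purification by glutathione affinity chromatography. Universal Agilent arrays made double-stranded by primer extension were incubated with the protein at 200 nM in PBS (pH 7.5), then scanned and quantified. All ungapped 8-mers were scored from probe intensities, and each received an enrichment E-score from the Universal PBM Analysis Suite, averaged over duplicate arrays.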
row,Sequence,PBM E-score of 8-mer
1,AGCTAACA,0.233 ± 0.022
2,CAATAGAC,-0.0363 ± 0.07
3,ATCCCTAC,-0.102 ± 0.046
4,GAGAGGGA,-0.132 ± 0.07
5,ACATCCCA,0.113 ± 0.041
6,AACTAAGG,-0.137 ± 0.037
7,CGACCCTC,0.000745 ± 0.071
8,GGCTTTGA,-0.208 ± 0.027
9,AAGGCGTG,0.392 ± 0.037
10,GACGCCCA,-0.0155 ± 0.091
11,AGGCGAAC,0.0165 ± 0.08
12,GAGAAGCA,-0.241 ± 0.075
13,CTAATAAA,-0.155 ± 0.028
14,CGCGACGA,0.229 ± 0.034
15,CAAGCTAG,-0.157 ± 0.011
16,CAAACACA,0.182 ± 0.011
17,AGGTCGCC,0.0223 ± 0.12
18,AGAGTAGA,-0.229 ± 0.03
19,CACGTTCC,0.124 ± 0.065
20,ACCGGTTC,-0.0766 ± 0.063
21,CATCTAGC,-0.0506 ± 0.055
22,ATGAAGCG,-0.0559 ± 0.013
23,AAACTTAT,-0.203 ± 0.0048
24,AGGCAAGA,-0.134 ± 0.02
25,TGGGTCAA,-0.189 ± 0.023

row,Sequence,PBM E-score of 8-mer
1,CTTTATTA,-0.232 ± 0.057
2,CATCCGCA,-0.00962 ± 0.082
3,CGACGACG,0.177 ± 0.013
4,CGAAAATA,0.126 ± 0.0045
5,GAGAGTTA,0.0121 ± 0.052
6,ATCTCTTC,-0.0734 ± 0.022
7,ACTCGCGC,0.298 ± 0.038
8,AGATCAGC,0.0416 ± 0.092
9,CCATTACC,-0.184 ± 0.091
10,CACGGCCG,0.165 ± 0.057
11,GATTTTGA,-0.0555 ± 0.0057
12,AATTTATG,-0.0572 ± 0.025
13,AGGACGAC,-0.21 ± 0.028
14,CATACGCA,0.0761 ± 0.044
15,GTTGATGA,0.0475 ± 0.034
16,TATATAAA,-0.113 ± 0.026
17,ACCTCACC,0.224 ± 0.017
18,CATTCTCA,0.232 ± 0.034
19,ACTCATGA,-0.0749 ± 0.082
20,CCAATGGG,-0.126 ± 0.033
21,TATAATAA,-0.141 ± 0.015
22,AGACCTTA,-0.113 ± 0.019
23,AGATTACG,-0.0672 ± 0.067
24,TTTCCAAA,-0.194 ± 0.025
25,ATCTATCG,-0.0383 ± 0.0026

row,Sequence,PBM E-score of 8-mer
1,ACGGAGCT,-0.0501 ± 0.075
2,ATTTTCTG,-0.222 ± 0.082
3,AAGCCCCA,-0.0812 ± 0.065
4,ATAACTGC,0.0244 ± 0.03
5,AGCAAGTC,0.0127 ± 0.025
6,CGGACTGA,-0.212 ± 0.02
7,GTAACACA,0.341 ± 0.024
8,AACAGTAG,0.008 ± 0.013
9,CGCCCCTA,-0.104 ± 0.031
10,CAAGAGAA,-0.083 ± 0.044
11,ACGACGTC,-0.0113 ± 0.0044
12,CGTACTGA,-0.163 ± 0.049
13,GGACTAAA,-0.159 ± 0.03
14,CGATCGGC,0.0733 ± 0.1
15,AAAGTCGC,0.158 ± 0.019
16,AATCAGAG,-0.264 ± 0.02
17,ATGGGCAG,-0.0503 ± 0.058
18,CCCGAAGA,-0.173 ± 0.0047
19,CCAAACGA,0.13 ± 0.072
20,GCGAGAAC,0.393 ± 0.0087
21,TACGGCCA,-0.189 ± 0.0022
22,GCATCCGA,-0.0905 ± 0.024
23,AGTCGACC,-0.199 ± 0.057
24,ACAGCACA,0.029 ± 0.027
25,GCCCCGCA,0.0578 ± 0.054

row,Sequence,PBM E-score of 8-mer
1,CGGCTTTA,0.0387 ± 0.0081
2,ACTTAGCT,-0.0966 ± 0.021
3,ATCTGTAA,0.0195 ± 0.0086
4,AACTAACG,0.158 ± 0.027
5,ACCTGTCT,0.104 ± 0.0037
6,GCCTAGGA,-0.192 ± 0.041
7,CAATTGAG,-0.2 ± 0.036
8,CTGCTTGC,-0.0876 ± 0.043
9,ACACCCCG,0.35 ± 0.018
10,GCTAAGTA,-0.246 ± 0.022
11,CCTTTGCA,-0.0392 ± 0.0034
12,AGCTGACA,0.231 ± 0.025
13,AGCGGCCT,0.107 ± 0.026
14,CCGTATTC,-0.0201 ± 0.057
15,ACGCTCGA,-0.118 ± 0.0043
16,AGTTGTAG,-0.065 ± 0.011
17,GCTGCGCA,0.0486 ± 0.034
18,ACAAGGGA,-0.0276 ± 0.021
19,AGTAAGAG,-0.113 ± 0.0043
20,CACACCGC,0.332 ± 0.037
21,AACATAGG,-0.0811 ± 0.042
22,TAAACTGA,-0.106 ± 0.099
23,GCGTCACA,0.319 ± 0.0097
24,ACGTCGGC,0.00047 ± 0.061
25,CCTCCAAA,-0.22 ± 0.039

row,Sequence,PBM E-score of 8-mer
1,ACCGCACA,0.109 ± 0.024
2,ACCTATTC,0.0131 ± 0.033
3,AAAGGCTA,-0.261 ± 0.033
4,GATTCTAA,-0.0979 ± 0.063
5,GTCATTGA,-0.0674 ± 0.031
6,AAATCGGA,-0.19 ± 0.051
7,AAGTCCGG,-0.223 ± 0.034
8,AATTAAAT,-0.214 ± 0.15
9,CAGCCGAG,-0.102 ± 0.036
10,CCATTTCC,-0.0935 ± 0.076
11,GCGTTTTA,0.0124 ± 0.084
12,CACGATAC,0.127 ± 0.019
13,TCACGCCA,0.403 ± 0.0053
14,GTCCAAGA,-0.229 ± 0.019
15,AATAATAA,-0.191 ± 0.01
16,AGACTCCA,-0.352 ± 0.027
17,AAGTACCA,-0.207 ± 0.029
18,TATAGGCA,-0.196 ± 0.006
19,TAGTTGAA,-0.0612 ± 0.025
20,CTCTCAAA,0.0429 ± 0.0086
21,AAGCTGGT,-0.00632 ± 0.14
22,TGAAGCCA,-0.0352 ± 0.019
23,ATAACAGC,0.19 ± 0.016
24,CCACGTTC,0.0649 ± 0.032
25,ATTGCTTG,0.127 ± 0.0089

row,Sequence,PBM E-score of 8-mer
1,GGTAAGGA,0.0123 ± 0.027
2,CGTCCACC,-0.1393 ± 0.0008
3,AAAACAAT,-0.0902 ± 0.0024
4,CATTGGGC,-0.191 ± 0.039
5,ATCCTTCA,-0.118 ± 0.06
6,GACTTCAC,0.142 ± 0.021
7,GCGAGCGC,0.296 ± 0.024
8,GCACTCAC,0.268 ± 0.012
9,GGCTTAAA,-0.2752 ± 0.0023
10,AAAATCGT,0.138 ± 0.016
11,CAGAGCGC,-0.00751 ± 0.044
12,AGATCCAT,-0.205 ± 0.039
13,GTGCCAAC,0.4114 ± 0.0035
14,TAAACTTA,-0.237 ± 0.068
15,ATGGGAGA,-0.0645 ± 0.14
16,CTGTTTCA,-0.132 ± 0.012
17,GGAGAACC,0.0265 ± 0.00056
18,AGGCGCGG,0.291 ± 0.017
19,AGGGTCCC,-0.224 ± 0.073
20,ATCCCTGA,-0.293 ± 0.0063
21,GCGAAGCC,0.11 ± 0.025
22,CCGAAAAG,0.0174 ± 0.0071
23,CTGTCTCA,0.0938 ± 0.061
24,CAATATCC,-0.252 ± 0.045
25,CCGGCTCC,-0.16 ± 0.029

row,Sequence,PBM E-score of 8-mer
1,AGGGCCAC,-0.156 ± 0.0034
2,AGTGCGGA,0.257 ± 0.023
3,GTTCGACA,0.126 ± 0.014
4,AGCTTTGG,-0.111 ± 0.051
5,AAACAGAT,-0.136 ± 0.01
6,ACGTAATG,-0.214 ± 0.021
7,GAAACTTC,-0.168 ± 0.042
8,ATCCGTCC,-0.137 ± 0.086
9,CGGGTACC,-0.0785 ± 0.021
10,ATTTCCAC,0.0969 ± 0.035
11,AGCTCTTG,-0.285 ± 0.025
12,ATTAAAGG,-0.0602 ± 0.029
13,AGTGCTGA,0.0461 ± 0.029
14,ACGGCGGC,0.12 ± 0.0025
15,CCCTTACC,0.0283 ± 0.022
16,ACGAACCG,0.192 ± 0.063
17,AGCCTAAT,-0.166 ± 0.091
18,AATATTAA,-0.0999 ± 0.0093
19,ATATATGA,0.0551 ± 0.0072
20,AACAACGC,0.164 ± 0.0066
21,CGGTCCAG,-0.263 ± 0.054
22,ACGCTAGG,0.112 ± 0.0082
23,CTTTCGTA,-0.103 ± 0.039
24,GACGTACC,-0.238 ± 0.0047
25,GCCAGGCA,-0.0123 ± 0.022

row,Sequence,PBM E-score of 8-mer
1,CACCCTTA,0.269 ± 0.032
2,ACGTCAAA,0.0165 ± 0.054
3,GTATGATA,-0.0654 ± 0.05
4,AAGCTTGG,-0.224 ± 0.018
5,ACGCCATG,-0.0492 ± 0.049
6,CGCTGGTA,-0.00191 ± 0.15
7,AACCACCT,0.0395 ± 0.04
8,AGGAGGAA,-0.102 ± 0.02
9,ACCCAAGT,0.134 ± 0.054
10,ATACTGGG,-0.276 ± 0.051
11,AACTAGTC,0.0498 ± 0.011
12,AACGATCG,0.163 ± 0.017
13,AGCGTGAC,0.3372 ± 0.0013
14,CAGGAACC,-0.269 ± 0.046
15,CTCTTCCC,-0.0127 ± 0.025
16,CACGTCAA,0.133 ± 0.028
17,ATATCCAT,-0.037 ± 0.059
18,AATTGGTC,-0.186 ± 0.00051
19,AGATCTAT,0.00585 ± 0.021
20,AGGGCCCC,-0.221 ± 0.043
21,TGAGCGCA,0.00286 ± 0.049
22,CGCCCAGA,0.0494 ± 0.0041
23,ACCGTTTG,-0.181 ± 0.039
24,AGGGGTCC,-0.234 ± 0.0071
25,CCTGGCGA,0.138 ± 0.064

row,Sequence,PBM E-score of 8-mer
1,AAAGTTGC,0.13 ± 0.042
2,TACCGTCA,0.178 ± 0.065
3,TAGCTCAA,-0.147 ± 0.011
4,AGGTCTTG,-0.136 ± 0.073
5,AAGGGGGA,-0.225 ± 0.019
6,ATTGTATA,-0.223 ± 0.0029
7,TGGCAACA,0.273 ± 0.022
8,CGGAGGAA,-0.347 ± 0.005
9,AATCCAGT,-0.0778 ± 0.0019
10,CAACAGGC,0.0667 ± 0.036
11,CCTTAGGA,-0.116 ± 0.027
12,TATTTCAA,-0.146 ± 0.037
13,AAGGCGGT,-0.0411 ± 0.04
14,AGGCTAGG,-0.251 ± 0.018
15,TTGCACAA,-0.0453 ± 0.013
16,CGATCATC,-0.0783 ± 0.0081
17,AGCATGTG,0.14 ± 0.11
18,CATGATGA,0.0198 ± 0.02
19,TACGCGAA,0.159 ± 0.05
